Data from PubChem BioAssay AID1454 (National Center for Advancing Translational Sciences (NCATS), 2008).
About 550 (0.42%) of roughly 130,000 compounds were called active. This list was built around the results that the source calls inconclusive (neither active nor inactive); the mix of calls is not that of the screen. The call rests on the fitted dose curve; in most records, active means well fitted inhibition curve with a large enough effect; inconclusive means small, poorly fitted or top-dose-only effect, or effect the other way; inactive means flat fitted curve, though single readings scatter. Potencies of inconclusive entries are left out as doubtful fits.

assay: qHTS Assay for Inhibitors of the ERK Signaling Pathway using a Homogeneous Screening Assay; Stimulation with EGF; conditions: HEK293-V1b, EGF-stimulated phospho-ERK AlphaScreen; activity change, negative = inhibition: at the top concentration; further: nearly all actives have a fitted effect of over 55% in size;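 on activity change, negative = inhibition: plate controls were stimulated vehicle wells for no effect and unstimulated vehicle basal for full effect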
From the text: NIH Chemical Genomics Center [NCGC]
NIH Molecular Libraries Screening Centers Network [MLSCN]
Assay Submitter (PI): Dr. Wei Zheng, NCGC/NIH
The Ras/extracellular-signal-regulated kinase (ERK) mitogen activated protein (MAP) kinase signaling pathway (ERK1/2 cascade) plays a key role in transmitting signals from the cell surface to the nucleus (Nishida and Gotoh 1993; Chang and Karin, 2001). The cascade is initiated by the small G-protein Ras, which recruits Raf from the cytosol, where activation occurs. Alternatively, this pathway can be activated by elevating intracellular cAMP, or by activation of a receptor tyrosine kinase as epidermal growth factor receptor.
Activation of the ERK pathway is essential in increased cell division and cell survival. Sustained and constitutive activation of the ERK pathway, however, has been linked to uncontrolled cell proliferation, increased cell survival, and tumor progression. Thus, the ERK has been as an attractive target for cancer chemotherapy in the past few years (Sebolt-Leopold and Herrera, 2004). Given its physiological and pathological importance, assessment of ERK phosphorylation has been broadly performed in both basic research and drug discovery. Most assays for the measurement of ERK phosphorylation use the antibody-based detection methods, such as western blot and ELISA. These assays require multiple reagent additions with cell wash steps and are not suitable for high throughout screening.
The current cell-based ERK phosphorylation assay was performed using AlphaScreen platform. AlphaScreen is a two bead-based proximity-dependent chemical energy transfer luminescent assay platform. The assay reagents (ERK SureFire(TM) kit) were supplied from TGR BioSciences (Australia). In the presence of specific antibodies, phosphorylated ERK will bring "donor" and "acceptor" beads to a proximity range (<200 nm), and subsequently lead a chemical luminescent reaction upon exciting donor beads with 680 nm laser. To exclude the assay-related false positives, we used a biotinylated rabbit IgG to perform counter-screen. The biotinylated antibody mimics the phosphorylated ERK1/2 for bringing streptavidin coated beads and protein-A coated beads to a proximity range for the AlphaScreen detection.
NCGC Assay Protocol Summary:
HEK293 cells stably expressing type-1 vasopressin receptor (V1b) were maintained in DMEM medium (Invitrogen, Carlsbad, CA) at 37C under a humidified atmosphere containing 5% CO2 and 95% air. The medium contained 10% FBS, 2 mM L-glutamine, non-essential amino acid, pyruvate and 50 U/ml penicillin and 50 ug/ml streptomycin (Invitrogen). The aliquots of frozen cells were stored at -135C and used for the compound screening. All compounds were screened as titrations from 0.6 nM to 46 uM final concentration. Epidermal growth factor (EGF) was used to stimulate the ERK phosphorylation pathway. The ERK phosphorylation in cells was determined using an AlphaScreen assay kit provided by […]. Data were normalized to the controls for basal activity (DMSO only) and 100% activation (25 nM EGF). AC50 values were determined from concentration-response data modeled with the standard Hill equation.
(1) Seed 4 ul/well of resuspended frozen HEK293 cells containing 2000 cells in white 1536-well plates for overnight with 1% FBS at 37C under a humidified atmosphere containing 5% CO2 and 95% air.
(2) Add 23 nL compounds in DMSO solution. The final titration was 0.6 nM to 46 uM.
(3) Incubate at 37C for 30 min.
(4) Dispense 0.5uL EGF (25 nM in final)
(5) Incubate at 37C for 5 min.
(6) Dispense 0.5uL of 1:2 diluted 5x lysis buffer.
(7) Incubate at 37C for 10 min.
(8) Dispense 1.5uL of mixture of activation buffer and reaction buffer with AlphaScreen beads (streptavidin donor beads and protein-A acceptor beads, 10 ng/well for each).
(9) Incubate at room temperature for 5 hr.
(10) Detect the assay plate in an EnVision plate reader (PerkinElmer) using the AlphaScreen detection mode.
[…]
Potency means the concentration at half of the fitted maximal effect; tags describe the fitted curve by direction and shape.

Structure (SMILES) | activity change, negative = inhibition | Potency
Cc1cc(C)cc(C(=O)OC2C[C@H]3CC[C@@H](C2)N3C)c1 (some centres undefined) | inactive: 6.98% | –
C=C(C=O)C[C@@H]1C[C@H](O)C2OC3C[C@]4(C)OC5/C=C\CC6OC7C(CC=CCC6OC5CCCC4OC3CC2O1)OC1CC2OC3CC(=O)OC3C[C@@H](C)C[C@@]2(C)OC1C[C@@H]7C (some centres undefined) | – | active: 3.98 µM
Cc1cc(/C=C2/C(=O)NC(=O)N(Cc3ccco3)C2=O)c(C)n1-c1ccccc1O | – | inconclusive [inhibitor, single point]
CN1C(=O)C(=Cc2sc(=O)n(-c3ccccc3)c2N2CCCCC2)C(=O)N(C)C1=O | – | inconclusive [inhibitor, single point]
CC1(C)OC(c2ccccc2)=C/C(=C/C=C2C(=O)NC(=O)NC2=O)O1 | – | inconclusive [inhibitor, single point]
CS(=O)(=O)N1CCN(C(=N)N[N+](=O)[O-])CC1 | – | inconclusive [activator, full curve, poor fit]
CC(C)NC(=O)N1CCC2(CCNCC2)CC1 | inactive: 7.49% | –
CN1CC(C(=O)c2ccc(Cl)cc2)C(c2ccc(N(C)C)cc2)C1 (centres undefined) | – | inconclusive [inhibitor, partial curve, poor fit]
CCOP(=O)(CC(C(C)=O)C(O)c1ccccc1)OCC (centres undefined) | – | inconclusive [inhibitor, partial curve]
c1ccc(-c2ccc(C(c3ccccc3)n3ccnc3)cc2)cc1 (centres undefined) | – | inconclusive [inhibitor, single point]
c1cncc(C2Nc3cccc4cccc(c34)N2)c1 | – | inconclusive [inhibitor, full curve, poor fit]
CCN(CC)c1ccc(C=C2C(=O)NC(=S)NC2=O)cc1 | – | active: 28.2 µM
O=C(CC[N+](=O)[O-])OCC1OC(O)C(OC(=O)CC[N+](=O)[O-])[C@@H](OC(=O)CC[N+](=O)[O-])C1OC(=O)CC[N+](=O)[O-] (some centres undefined) | inactive: 16.2% | –
CNc1cc(Cl)c2nonc2c1[N+](=O)[O-] | – | inconclusive [inhibitor, single point]
CNc1ccccc1C(=O)O | inactive: 23.3% | –
COC(=O)[C@]1(C)CC[C@@]2(C)CC[C@@]3(C)C4=CC=C5C(=CC(=O)C(O)=C5C)[C@@]4(C)CC[C@@]3(C)C2C1 (some centres undefined) | – | active: 14.1 µM
CC(=O)OC1CC2C(C)(C)C(O)C=C[C@@]2(C)C2CC[C@]3(C)C(=CC(=O)OC3c3ccoc3)[C@]12C (some centres undefined) | inactive: -3.81% | –
Cc1ccccc1N1C(=O)NC(=O)/C(=C/c2ccc(N3CCOCC3)o2)C1=O | inactive: 5.44% [at 57.5 µM] | –
CC(=O)OC1(c2ccccc2)CCN(C2CCCCC2)CC1C (centres undefined) | – | inconclusive [inhibitor, partial curve, poor fit]
CCC[N+]12CCC(CC1)C(C(O)(c1ccccc1)c1ccccc1)C2 (centres undefined) | inactive: -10.5% [at 57.5 µM] | –
Cc1nc2c(-c3ccccc3)c(C)nn2c(C)c1CCC(=O)N1CCC2(CC1)OCCO2 | inactive: 2.17% | –
NC(=O)CI | inactive: -5.3% | –
Cc1ccc(N)c(C(=O)c2ccc(Br)cc2)c1 | – | inconclusive [inhibitor, single point]

Structure (SMILES) | activity change, negative = inhibition | Potency
CCCN1CCc2cc(O)cc3c2C1Cc1ccc(O)c(O)c1-3 (centres undefined) | – | inconclusive [inhibitor, single point]
C[C@]12CC[C@@H]3c4ccc(O)cc4C(=O)C[C@H]3[C@@H]1CC[C@@H]2O | – | inconclusive [inhibitor, single point]
CC(C)[C@H]1C(=O)N2CCC[C@H]2[C@]2(O)O[C@](NC(=O)[C@@H]3C=C4c5cccc6[nH]cc(c56)C[C@H]4N(C)C3)(C(C)C)C(=O)N12 | – | inconclusive [inhibitor, single point]
c1ccc(Cn2ccnc2)cc1 | inactive: -11.8% [at 57.5 µM] | –
O[N+]1=CC=CCC1=S.On1ccccc1=S.[Zn] | – | active: 20 µM
CCOC(=O)C1CCN(/C=C2/C(=O)NC(=S)N(c3ccccc3F)C2=O)CC1 | inactive: 2.19% | –
Oc1cc2c(cc1O)[C@H]1c3ccccc3CN[C@H]1CC2 | inactive: -1.61% | –
O=[N+]([O-])c1ccc(N2CCCCCC2)c2ncccc12 | – | inconclusive [inhibitor, single point]
COC(=O)C1=CO[C@@H](C)[C@@H]2CN3CCc4c([nH]c5cc(OC)ccc45)[C@@H]3C[C@H]12 | – | inconclusive [inhibitor, partial curve]
CCCCC/C=C\C/C=C\C/C=C\C/C=C\CCCC(=O)N[C@H](C)CO | inactive: -7.96% | –
CC1=C(C(=O)O)N2C(=O)C(NC(=O)Cc3ccccc3)C2SC1 (centres undefined) | – | inconclusive [inhibitor, full curve]
O=C(COC(=O)c1ccc(O)cc1)Nc1ccc(Cl)cc1C(=O)c1ccccc1 | – | inconclusive [inhibitor, single point]
CC(=O)[C@H]1[C@H](C#N)C[C@H]2[C@@H]3CC=C4C[C@@H](O)CC[C@]4(C)[C@H]3CC[C@@]21C | – | inconclusive [inhibitor, partial curve]
O=C1Nc2ccccc2C2(CCN(CCc3ccc(C(F)(F)F)cc3)CC2)O1 | – | active: 31.6 µM
CC(CCC(=O)O)C1CCC2C3CC[C@H]4CC(O)CC[C@@]4(C)C3CC[C@@]12C (some centres undefined) | – | inconclusive [inhibitor, single point]
CCCCCc1nc2c(c(=O)c3ccccc3n2C)c(=O)n1C1CCCCCC1 | – | inconclusive [inhibitor, single point]
Cc1cc(C=C2C(=O)NC(=O)NC2=O)c(C)n1-c1ccc2c(c1)OCO2 | – | inconclusive [inhibitor, single point]
CN1C(=O)C(=Cc2ccc(N(C)C)c([N+](=O)[O-])c2)C(=O)N(C)C1=O | inactive: -4.44% | –
Nc1cc(Cl)c2nonc2c1[N+](=O)[O-] | inactive: 3.34% | –
Cc1ccc(N2C(=O)NC(=O)/C(=C\C=C\c3ccco3)C2=O)cc1 | – | inconclusive [inhibitor, single point]
CCCOc1ccc(Cc2c(Cl)nc(SC)nc2OC)cc1 | – | inconclusive [activator, single point]
CC1=CC[C@@H]2[C@@H](C1)c1c(O)cc(CC#CCCCNS(C)(=O)=O)cc1OC2(C)C | – | inconclusive [inhibitor, single point]
CCCN(CCC)C1Cc2cc(OC)c(OC)cc2C1 | – | inconclusive [inhibitor, partial curve]

Structure (SMILES) | activity change, negative = inhibition | Potency
CC(Cc1ccccc1)NCc1ccccc1O (centres undefined) | – | inconclusive [inhibitor, partial curve]
COC(=O)N1CCN(C(=O)Cc2ccc(Cl)c(Cl)c2)C(CN2CCCC2)C1 (centres undefined) | – | inconclusive [inhibitor, partial curve]
O=C(Oc1ccccc1)N1CCC2(CCN(Cc3ccccc3)CC2)CC1 | – | inconclusive [inhibitor, partial curve, poor fit]
CC(C)=CCCC1(C)C=Cc2c(O)c3c(c(CC=C(C)C)c2O1)OC12C(=CC4CC1C(C)(C)OC2(C/C=C(/C)C(=O)O)C4=O)C3=O (centres undefined) | – | active: 15.8 µM
c1ccc2c(CN3CCCCC3)c[nH]c2c1 | – | inconclusive [inhibitor, single point]
COc1cc2c(cc1O)C[C@H]1c3c(cc(OC)c(O)c3-2)CCN1C | inactive: 3.28% | –
Cc1cccc(N2C(=O)NC(=O)/C(=C\C=C\c3ccco3)C2=O)c1 | – | inconclusive [inhibitor, single point]
CCOC(=O)c1ccc(NC(=O)CSc2ccc(-c3cccnc3)nn2)cc1 | – | inconclusive [inhibitor, partial curve]
CC1O[C@@H](OC2CC[C@@]3(C=O)C4CC[C@]5(C)C(C6=CC(=O)OC6)CC[C@@]5(O)C4CC[C@]3(O)C2)C(O)C(O)C1O (some centres undefined) | inactive: 5.44% | –
N#Cc1c(Cl)c(Cl)c(Cl)c(C#N)c1Cl | – | active: 3.98 µM
O=c1[nH]c2ccccc2o1 | inactive: -22.6% | –
CN(C)c1ccc(-[n+]2c(-c3ccccc3)cc(-c3ccccc3)cc2-c2ccccc2)cc1 | – | inconclusive [inhibitor, partial curve]
CC(=O)c1ccc2c(c1)C1C(Cl)C(Sc3ccccc3[N+](=O)[O-])CC1C(C(=O)O)N2 (centres undefined) | – | inconclusive [inhibitor, partial curve]
CN(C)C(=O)Oc1ccc(OCc2nc3ccccc3[nH]2)cc1 | inactive: 4.99% | –
CO[C@H]1C=C2CCN(C)[C@@H]2[C@@H]2c3cc4c(cc3C(=O)O[C@H]21)OCO4 | inactive: 4.3% [at 25.7 µM] | –
O=C(c1cn(Cc2ccccc2)c2ccccc12)C1CC1 | inactive: -7.06% | –
O=[N+]([O-])c1ccc(N2CCNCC2)cc1N1CCCCCC1 | – | inconclusive [inhibitor, partial curve]
OC(c1ccccc1)(c1ccccc1)C1CCCN1 (centres undefined) | – | inconclusive [inhibitor, single point]
COc1cc2c(cc1/C=C/[N+](=O)[O-])OCO2 | – | inconclusive [inhibitor, single point]
O=C(O)CCC(=O)NCCC1=c2ccccc2=N/C1=C\c1c(O)n(Cc2ccc(F)cc2)c(=S)[nH]c1=O | – | inconclusive [inhibitor, single point]
C[CH2][Hg][S]c1ccccc1C(=O)O | – | active: 31.6 µM
CC(=O)OC[C@]12CCC(C)=C[C@H]1O[C@@H]1[C@H](O)[C@@H](OC(C)=O)[C@@]2(C)[C@]12CO2 | inactive: -8.4% [at 57.5 µM] | –
Cc1ccc(NC(=O)CN(C)CC(=O)Nc2cccc(F)c2)cc1[N+](=O)[O-] | – | inconclusive [inhibitor, single point]
